Experimental data published in the supplement of paper PMC4604168 (melanoma cell lines).
The list shows a part of the results. Most values come without repeats; read them as rough.

Columns and labels:
Test in all cases: cell count relative to DMSO control; melanoma cells; higher = more viable cells
Conditions in all cases: library dose: standard library concentration; 72 h
SkMel28 = test system: SkMel28
SkMel2 = test system: SkMel2
SkMel30 = test system: SkMel30
SkMel5 = test system: SkMel5
UACC257 = test system: UACC257
UACC62 = test system: UACC62
WM115 = test system: WM115
WM1716 = test system: WM1716
WM1745 = test system: WM1745
WM3526 = test system: WM3526
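Also: cells treated in 1,536-well plates, then fixed and DAPI-stained, with nuclei counted from automated high-throughput microscope images.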

SMILES	cell count (SkMel28) [%]	cell count (SkMel2) [%]	cell count (SkMel30) [%]	cell count (SkMel5) [%]	cell count (UACC257) [%]	cell count (UACC62) [%]	cell count (WM115) [%]	cell count (WM1716) [%]	cell count (WM1745) [%]	cell count (WM3526) [%]
C[C@]12O[C@H](C[C@]1(O)CO)n1c3ccccc3c3c4c(c5c6ccccc6n2c5c31)CNC4=O [Lestaurtinib] + COc1cc2c(Oc3ccc4[nH]c(C)cc4c3F)ncnc2cc1OCCCN1CCCC1 [cediranib] (first compound 0.02 µM, partner dose 2 µM)	73.2	89.9	91.3	63.5	69.6	86.2	71.5	84.6	107	72.6
C[C@]12O[C@H](C[C@]1(O)CO)n1c3ccccc3c3c4c(c5c6ccccc6n2c5c31)CNC4=O [Lestaurtinib] + O=C(CCCCCCC(=O)Nc1ccccc1)NO [vorinostat] (first compound 0.02 µM, partner dose 0.4 µM)	50.6	80.8	95.9	57.7	85.2	78.4	75.6	95.5	61.7	66.6
C[C@]12O[C@H](C[C@]1(O)CO)n1c3ccccc3c3c4c(c5c6ccccc6n2c5c31)CNC4=O [Lestaurtinib] + O=C(O)[C@@H]1[O][Sb](=[O])([O][Sb]2(=[O])[O][C@H]([C@H](O)CO)[C@H](O)[C@H](C(=O)O)[O]2)[O][C@H]([C@H](O)CO)[C@@H]1O [stibogluconate] (first compound 0.02 µM, partner dose 10 µM)	56.1	106	74	65	93.1	69	69.1	106	96.2	77.8
C[As](C)SC[C@H](NC(=O)CC[C@H](N)C(=O)O)C(=O)NCC(=O)O [Darinaparsin] + COCC[n+]1c2c(n(Cc3cnccn3)c1C)C(=O)c1ccccc1C2=O [YM155] (first compound 2 µM, partner dose 0.002 µM)	41.3	33.9	49.6	26	17.3	46.4	63.9	54.9	60.4	44.3
Cn1cc(C2=C(c3cn(C4CCN(Cc5ccccn5)CC4)c4ccccc34)C(=O)NC2=O)c2ccccc21 [Enzastaurin] + Cc1ccc(NC(=O)c2cccc(N(C)C)c2)cc1NC(=O)c1ccc(O)cc1 [ZM336372] (first compound 4 µM, partner dose 10 µM)	81.9	71.8	92.5	67.1	75.2	85.1	119	112	57	93.8
C[C@]12O[C@H](C[C@]1(O)CO)n1c3ccccc3c3c4c(c5c6ccccc6n2c5c31)CNC4=O [Lestaurtinib] + C[C@@H]1CCN(C(=O)CC#N)C[C@@H]1N(C)c1ncnc2[nH]ccc12 [CP690550] (first compound 0.02 µM, partner dose 5 µM)	70.2	107	72.7	58.2	107	85.7	83.1	106	111	65.5
N.N.[Cl][Pt][Cl] [cisplatin] + COCC[n+]1c2c(n(Cc3cnccn3)c1C)C(=O)c1ccccc1C2=O [YM155] (first compound 8 µM, partner dose 0.002 µM)	46.9	40.2	58.7	41.5	22.3	57.7	82.6	72.6	102	44
N.N.[Cl][Pt][Cl] [cisplatin] + C=C(c1ccc(C(=O)O)cc1)c1cc2c(cc1C)C(C)(C)CCC2(C)C [Bexarotene] (first compound 8 µM, partner dose 10 µM)	79.6	92.1	94	89.3	84.3	63.1	104	87	115	66.2
N.N.[Cl][Pt][Cl] [cisplatin] + O=C(CCCCCCC(=O)Nc1ccccc1)NO [vorinostat] (first compound 8 µM, partner dose 0.4 µM)	56.2	75.9	75.2	53.5	57.5	73	63.4	77.2	55.8	62.1
C[C@]12O[C@H](C[C@]1(O)CO)n1c3ccccc3c3c4c(c5c6ccccc6n2c5c31)CNC4=O [Lestaurtinib] + Cn1c(=O)n(-c2ccc(C(C)(C)C#N)cc2)c2c3cc(-c4cnc5ccccc5c4)ccc3ncc21 [NVP-BEZ235] (first compound 0.02 µM, partner dose 0.02 µM)	51.2	71.6	58	48.2	83.3	83.3	54.2	73.5	65.2	58.1
C[As](C)SC[C@H](NC(=O)CC[C@H](N)C(=O)O)C(=O)NCC(=O)O [Darinaparsin] + Cc1nc(Nc2ncc(C(=O)Nc3c(C)cccc3Cl)s2)cc(N2CCN(CCO)CC2)n1 [dasatanib] (first compound 2 µM, partner dose 0.02 µM)	56.9	86.7	74.5	47.2	54.8	80.7	63.9	42.4	31.4	65.6
Cn1cc(C2=C(c3cn(C4CCN(Cc5ccccn5)CC4)c4ccccc34)C(=O)NC2=O)c2ccccc21 [Enzastaurin] + COc1cc2c(Oc3ccc4[nH]c(C)cc4c3F)ncnc2cc1OCCCN1CCCC1 [cediranib] (first compound 4 µM, partner dose 2 µM)	74.1	73.4	103	90.4	107	58.2	72.8	68.4	15.2	88.1
C[C@]12O[C@H](C[C@]1(O)CO)n1c3ccccc3c3c4c(c5c6ccccc6n2c5c31)CNC4=O [Lestaurtinib] + NCC(=O)Nc1ccc(-n2nc(C(F)(F)F)cc2-c2ccc3c(ccc4ccccc43)c2)cc1 [OSU03012] (first compound 0.02 µM, partner dose 5 µM)	20.3	44.9	42.2	53.5	73.7	66.3	75.1	99.5	101	63.9
Cn1cc(C2=C(c3cn(C4CCN(Cc5ccccn5)CC4)c4ccccc34)C(=O)NC2=O)c2ccccc21 [Enzastaurin] + C#Cc1cccc(Nc2ncnc3cc(OCCOC)c(OCCOC)cc23)c1 [erlotinib] (first compound 4 µM, partner dose 4 µM)	62.9	57.2	67.7	63.6	95.6	72.5	89.6	82.2	19.1	74.1
C[As](C)SC[C@H](NC(=O)CC[C@H](N)C(=O)O)C(=O)NCC(=O)O [Darinaparsin] + O=C(Oc1ccc([N+](=O)[O-])cc1)N1CCC(C(O)(c2ccc3c(c2)OCO3)c2ccc3c(c2)OCO3)CC1 [JZL184] (first compound 2 µM, partner dose 5 µM)	85.5	95.2	83.6	47.6	90.2	71.7	73	63.1	109	62.4
N.N.[Cl][Pt][Cl] [cisplatin] + Nc1ncn([C@H]2C[C@H](O)[C@@H](CO)O2)c(=O)n1 [decitabine] (first compound 8 µM, partner dose 0.5 µM)	59.3	84.4	88.6	72.6	78.3	52.8	65	63.1	88.6	69.2
N.N.[Cl][Pt][Cl] [cisplatin] + Cc1nc(Nc2ncc(C(=O)Nc3c(C)cccc3Cl)s2)cc(N2CCN(CCO)CC2)n1 [dasatanib] (first compound 8 µM, partner dose 0.02 µM)	77.6	95.5	83.8	67.3	67	90.8	74.1	69.3	55	85.4
C[As](C)SC[C@H](NC(=O)CC[C@H](N)C(=O)O)C(=O)NCC(=O)O [Darinaparsin] + C=CCn1c(=O)c2cnc(Nc3ccc(N4CCN(C)CC4)cc3)nc2n1-c1cccc(C(C)(C)O)n1 [MK1775] (first compound 2 µM, partner dose 0.1 µM)	32.7	65.4	58.7	30.1	75.5	68.8	50	58.6	42.7	54.4
Cn1cc(C2=C(c3cn(C4CCN(Cc5ccccn5)CC4)c4ccccc34)C(=O)NC2=O)c2ccccc21 [Enzastaurin] + CN(C)S(=O)(=O)c1ccc2c(c1)/C(=C/c1cc3c([nH]1)CCCC3)C(=O)N2 [SU6656] (first compound 4 µM, partner dose 2 µM)	60.8	81.5	88.3	65.3	89.7	64.3	58.7	49	53.9	87
C[C@]12O[C@H](C[C@]1(O)CO)n1c3ccccc3c3c4c(c5c6ccccc6n2c5c31)CNC4=O [Lestaurtinib] + CN(C)S(=O)(=O)c1ccc2c(c1)/C(=C/c1cc3c([nH]1)CCCC3)C(=O)N2 [SU6656] (first compound 0.02 µM, partner dose 2 µM)	41.2	85.9	71.9	55.3	86.5	74.9	41.5	73.5	64.1	54.4
C[As](C)SC[C@H](NC(=O)CC[C@H](N)C(=O)O)C(=O)NCC(=O)O [Darinaparsin] + Cn1cncc1[C@@](N)(c1ccc(Cl)cc1)c1ccc2c(c1)c(-c1cccc(Cl)c1)cc(=O)n2C [tipifarnib] (first compound 2 µM, partner dose 0.05 µM)	64.5	77.2	82.5	46.5	74.4	77.7	63.4	46.8	105	61.9
